Laboratory results: the supplement of paper PMC8728848
The list shows a part of the results.

Columns and labels:
Experiment in all cases: glycan array binding signal (z-score within array); higher = stronger binding
Settings in all cases: glycan notation: IUPAC condensed, linker removed
[1] = target: GlcNAc(b1-3)Gal(b1-4)GlcNAc(b1-3)Gal(b1-4)GlcNAc(b1-3)GalNAc
Summary of the method: (§1)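 The binding signal is a Z-score computed within each array. Data were drawn from 3228 arrays in the Consortium for Functional Glycomics database, restricted to those with a known protein sequence. Scores were averaged over arrays of the same protein sequence at different concentrations or buffers, and over linkers, and negative values can be taken as non-binding.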

[2] = target: GlcNAc(b1-3)Gal(b1-4)GlcNAc(b1-3)GalNAc
Summary of the method: as §1

[3] = target: GlcNAc(b1-3)Gal(b1-4)GlcNAc(b1-3)[GlcNAc(b1-3)Gal(b1-4)GlcNAc(b1-3)]GalNAc
Summary of the method: as §1

[4] = target: GlcNAc(b1-3)Gal(b1-4)GlcNAc(b1-6)[Gal(b1-3)]GalNAc
Summary of the method: as §1

[5] = target: GlcNAc(b1-3)Gal(b1-4)GlcNAc(b1-6)[GlcNAc(b1-3)Gal(b1-3)]GalNAc
Summary of the method: as §1

[6] = target: GlcNAc(b1-3)Gal(b1-4)GlcNAc(b1-6)[GlcNAc(b1-3)]Gal(b1-4)GlcNAc
Summary of the method: as §1

GlcNAc(b1-3)GalNAc = target: GlcNAc(b1-3)GalNAc
Summary of the method: as §1

GlcNAc(b1-3)Man = target: GlcNAc(b1-3)Man
Summary of the method: as §1

[7] = target: GlcNAc(b1-3)[GlcNAc(b1-4)][GlcNAc(b1-6)]GlcNAc
Summary of the method: as §1

[8] = target: GlcNAc(b1-3)[GlcNAc(b1-6)]Gal(b1-4)GlcNAc
Summary of the method: as §1

[9] = target: GlcNAc(b1-3)[GlcNAc(b1-6)]GalNAc
Summary of the method: as §1

[10] = target: GlcNAc(b1-4)Gal(b1-4)GlcNAc
Summary of the method: as §1

GlcNAc(b1-4)GlcNAc = target: GlcNAc(b1-4)GlcNAc
Summary of the method: as §1

[11] = target: GlcNAc(b1-4)GlcNAc(b1-4)GlcNAc
Summary of the method: as §1

[12] = target: GlcNAc(b1-4)GlcNAc(b1-4)GlcNAc(b1-4)GlcNAc(b1-4)GlcNAc
Summary of the method: as §1

[13] = target: GlcNAc(b1-4)GlcNAc(b1-4)GlcNAc(b1-4)GlcNAc(b1-4)GlcNAc(b1-4)GlcNAc
Summary of the method: as §1

[14] = target: GlcNAc(b1-4)[GlcNAc(b1-6)]GalNAc
Summary of the method: as §1

[15] = target: GlcNAc(b1-6)Gal(b1-4)GlcNAc
Summary of the method: as §1

GlcNAc(b1-6)GalNAc = target: GlcNAc(b1-6)GalNAc
Summary of the method: as §1

[16] = target: GlcNAc6S(b1-3)Gal(b1-4)GlcNAc
Summary of the method: as §1

Kdn(a2-3)Gal(b1-3)GalNAc = target: Kdn(a2-3)Gal(b1-3)GalNAc
Summary of the method: as §1

Kdn(a2-3)Gal(b1-3)GlcNAc = target: Kdn(a2-3)Gal(b1-3)GlcNAc
Summary of the method: as §1

Kdn(a2-3)Gal(b1-4)Glc = target: Kdn(a2-3)Gal(b1-4)Glc
Summary of the method: as §1

Kdn(a2-3)Gal(b1-4)GlcNAc = target: Kdn(a2-3)Gal(b1-4)GlcNAc
Summary of the method: as §1

[17] = target: Kdn(a2-3)Gal(b1-4)[Fuc(a1-3)]GlcNAc
Summary of the method: as §1

Kdn(a2-6)Gal(b1-4)GlcNAc = target: Kdn(a2-6)Gal(b1-4)GlcNAc
Summary of the method: as §1

[18] = target: Man(a1-2)Man(a1-2)Man(a1-3)Man
Summary of the method: as §1

[19] = target: Man(a1-2)Man(a1-2)Man(a1-6)[Man(a1-3)]Man
Summary of the method: as §1

Man(a1-2)Man(a1-3)Man = target: Man(a1-2)Man(a1-3)Man
Summary of the method: as §1

[20] = target: Man(a1-2)Man(a1-3)[Man(a1-2)Man(a1-6)]Man
Summary of the method: as §1

[21] = target: Man(a1-2)Man(a1-3)[Man(a1-2)Man(a1-6)]Man(a1-6)[Man(a1-2)Man(a1-2)Man(a1-3)]Man
Summary of the method: as §1

[22] = target: Man(a1-2)Man(a1-3)[Man(a1-2)Man(a1-6)]Man(a1-6)[Man(a1-2)Man(a1-2)Man(a1-3)]Man(b1-4)GlcNAc(b1-4)GlcNAc
Summary of the method: as §1

[23] = target: Man(a1-2)Man(a1-3)[Man(a1-6)]Man(a1-6)[Man(a1-2)Man(a1-3)]Man(b1-4)GlcNAc(b1-4)GlcNAc
Summary of the method: as §1

[24] = target: Man(a1-2)Man(a1-6)[Man(a1-3)]Man(a1-6)[Man(a1-2)Man(a1-2)Man(a1-3)]Man
Summary of the method: as §1

[25] = target: Man(a1-2)Man(a1-6)[Man(a1-3)]Man(a1-6)[Man(a1-2)Man(a1-2)Man(a1-3)]Man(b1-4)GlcNAc(b1-4)GlcNAc
Summary of the method: as §1

Man(a1-3)[Man(a1-6)]Man = target: Man(a1-3)[Man(a1-6)]Man
Summary of the method: as §1

[26] = target: Man(a1-3)[Man(a1-6)]Man(a1-6)[Man(a1-2)Man(a1-3)]Man(b1-4)GlcNAc(b1-4)GlcNAc
Summary of the method: as §1

B1: SP16664D-bth-476-27-476 (Bacteroides thetaiotaomicron) (protein)
chain: DDLEVGKNIDESAYSGIYENNAYLRDGKSNLVSKVVELHGETYATTVKMGLSKTPNTATSAKVKIDAAYLETYNKAHNTDFALYPQDLVTFANEGILTVNANTKSAEVEMTIRAGEGLQEDKTYAIPVAISDQSSDITIKDEDAKHCIYLVKDMRNAGDAYKGEGVMQGYLFFEVNDVNPLNTLSFQLENGKLLWDVVVLFAANINYDAEAGRPRVQCNPNVQYLLDNNETLLQPLRRRGVKVLLGLLGNHDITGLAQLSEQGAKDFAREVAQYCKAYNLDGVNYDDEYSNSPDLSNPSLTNPSTAAAARLCYETKQAMPDKLVTVFDWGQMYGVATVDGVDAKEWIDIVVANYGSAAYPIGQMTKKQCSGISMEFNLGGGGSLSASKAQSMIDGGYGWFMGFAPSPAKYGSVFSRLQGGGEVLYGSNVAAPTIFYKKNDPTPYKYPDDL
glycan array binding signal (z-score) [1]: 0.164 | glycan array binding signal (z-score) [2]: -0.242 | glycan array binding signal (z-score) [3]: -0.105 | glycan array binding signal (z-score) [4]: -0.233 | glycan array binding signal (z-score) [5]: -0.083 | glycan array binding signal (z-score) [6]: -0.3 | glycan array binding signal (z-score) (GlcNAc(b1-3)GalNAc): -0.083 | glycan array binding signal (z-score) (GlcNAc(b1-3)Man): -0.364 | glycan array binding signal (z-score) [7]: -0.17 | glycan array binding signal (z-score) [8]: -0.212 | glycan array binding signal (z-score) [9]: -0.253 | glycan array binding signal (z-score) [10]: -0.346 | glycan array binding signal (z-score) (GlcNAc(b1-4)GlcNAc): -0.307 | glycan array binding signal (z-score) [11]: -0.256 | glycan array binding signal (z-score) [12]: 0.044 | glycan array binding signal (z-score) [13]: -0.099 | glycan array binding signal (z-score) [14]: -0.1 | glycan array binding signal (z-score) [15]: 0.169 | glycan array binding signal (z-score) (GlcNAc(b1-6)GalNAc): -0.16 | glycan array binding signal (z-score) [16]: 0.027 | glycan array binding signal (z-score) (Kdn(a2-3)Gal(b1-3)GalNAc): -0.3 | glycan array binding signal (z-score) (Kdn(a2-3)Gal(b1-3)GlcNAc): -0.337 | glycan array binding signal (z-score) (Kdn(a2-3)Gal(b1-4)Glc): -0.218 | glycan array binding signal (z-score) (Kdn(a2-3)Gal(b1-4)GlcNAc): -0.213 | glycan array binding signal (z-score) [17]: -0.221 | glycan array binding signal (z-score) (Kdn(a2-6)Gal(b1-4)GlcNAc): -0.102 | glycan array binding signal (z-score) [18]: -0.151 | glycan array binding signal (z-score) [19]: -0.254 | glycan array binding signal (z-score) (Man(a1-2)Man(a1-3)Man): -0.146 | glycan array binding signal (z-score) [20]: 0.093 | glycan array binding signal (z-score) [21]: 0.008 | glycan array binding signal (z-score) [22]: -0.2 | glycan array binding signal (z-score) [23]: -0.209 | glycan array binding signal (z-score) [24]: -0.295 | glycan array binding signal (z-score) [25]: 0.353 | glycan array binding signal (z-score) (Man(a1-3)[Man(a1-6)]Man): 0.164 | glycan array binding signal (z-score) [26]: -0.285
